{
  "source": "the supplement of paper PMC12645437",
  "about": "“Orthogonal IMiD-Degron Pairs Induce Selective Protein Degradation in Cells” (ACS Chemical Biology, 2025)",
  "sequences": {"B1": {"name": "Q9UKT9 (peptide)", "chain": "FSCSVCGHSFTQKGNLLRHIKL"}, "B2": {"name": "Q9UKT9 (peptide)", "chain": "FGCPICGRPFTQKGNLLRHIKL"}, "B3": {"name": "Q9UKT9 (peptide)", "chain": "FKCPICGHLFTQKGNLLRHIKL"}, "B4": {"name": "Q9UKT9 (peptide)", "chain": "LYCNQCGFKCTQKGNLLRHIKL"}, "B5": {"name": "Q9UKT9 (peptide)", "chain": "FHCPICGRAFTQKGNLLRHIKL"}, "B6": {"name": "Q9UKT9 (peptide)", "chain": "FWCEVCGAEFTQKGNLLRHIKL"}, "B7": {"name": "Q9UKT9 (peptide)", "chain": "FECEICGRWFTQKGNLLRHIKL"}, "B8": {"name": "Q9UKT9 (peptide)", "chain": "FACPICGRKFTQKGNLLRHIKL"}, "B9": {"name": "Q9UKT9 (peptide)", "chain": "FICPICGANFTQKGNLLRHIKL"}, "B10": {"name": "Q9UKT9 (peptide)", "chain": "FMCDVCGAGFTQKGNLLRHIKL"}, "B11": {"name": "Q9UKT9 (peptide)", "chain": "FTCEICGHHFTQKGNLLRHIKL"}, "B12": {"name": "Q9UKT9 (peptide)", "chain": "LWCEICGFFCTQKGNLLRHIKL"}, "B13": {"name": "Q9UKT9 (peptide)", "chain": "FECNQCGAHFTQKGNLLRHIKL"}, "B14": {"name": "Q9UKT9 (peptide)", "chain": "FTCNQCGASFTQKGNLLRHIKL"}, "B15": {"name": "Q9UKT9 (peptide)", "chain": "FGCNQCGAYFTQKGNLLRHIKL"}, "B16": {"name": "Q9UKT9 (peptide)", "chain": "FHCNQCGHFFTQKGNLLRHIKL"}, "B17": {"name": "Q9UKT9 (peptide)", "chain": "FVCEVCGANFTQKGNLLRHIKL"}, "B18": {"name": "Q9UKT9 (peptide)", "chain": "FVCEICGRVFTQKGNLLRHIKL"}, "B19": {"name": "Q9UKT9 (peptide)", "chain": "LMCPICGFTCTQKGNLLRHIKL"}, "B20": {"name": "Q9UKT9 (peptide)", "chain": "FLCSVCGHWFTQKGNLLRHIKL"}, "B21": {"name": "Q9UKT9 (peptide)", "chain": "FSCPQCGAGFTQKGNLLRHIKL"}, "B22": {"name": "Q9UKT9 (peptide)", "chain": "FACNQCGAHFTQKGNLLRHIKL"}, "B23": {"name": "Q9UKT9 (peptide)", "chain": "FECNQCGHDFTQKGNLLRHIKL"}, "B24": {"name": "Q9UKT9 (peptide)", "chain": "FKCNQCGRQFTQKGNLLRHIKL"}, "B25": {"name": "Q9UKT9 (peptide)", "chain": "FCCNQCGHNFTQKGNLLRHIKL"}, "B26": {"name": "Q9UKT9 (peptide)", "chain": "FQCEQCGAKFTQKGNLLRHIKL"}, "B27": {"name": "Q9UKT9 (peptide)", "chain": "FNCPICGANFTQKGNLLRHIKL"}, "B28": {"name": "Q9UKT9 (peptide)", "chain": "FCCPICGRIFTQKGNLLRHIKL"}, "B29": {"name": "Q9UKT9 (peptide)", "chain": "FRCNQCGHQFTQKGNLLRHIKL"}, "B30": {"name": "Q9UKT9 (peptide)", "chain": "FACPQCGAKFTQKGNLLRHIKL"}, "B31": {"name": "Q9UKT9 (peptide)", "chain": "FSCDICGARFTQKGNLLRHIKL"}, "B32": {"name": "Q9UKT9 (peptide)", "chain": "FACPICGATFTQKGNLLRHIKL"}, "B33": {"name": "Q9UKT9 (peptide)", "chain": "FECEQCGARFTQKGNLLRHIKL"}, "B34": {"name": "Q9UKT9 (peptide)", "chain": "FLCPICGRMFTQKGNLLRHIKL"}, "B35": {"name": "Q9UKT9 (peptide)", "chain": "FICDQCGANFTQKGNLLRHIKL"}, "B36": {"name": "Q9UKT9 (peptide)", "chain": "FVCNQCGRTFTQKGNLLRHIKL"}, "B37": {"name": "Q9UKT9 (peptide)", "chain": "FQCPQCGAFFTQKGNLLRHIKL"}, "B38": {"name": "Q9UKT9 (peptide)", "chain": "FHCEQCGAHFTQKGNLLRHIKL"}, "B39": {"name": "Q9UKT9 (peptide)", "chain": "LRCEICGFICTQKGNLLRHIKL"}, "B40": {"name": "Q9UKT9 (peptide)", "chain": "FFCDICGAIFTQKGNLLRHIKL"}, "B41": {"name": "Q9UKT9 (peptide)", "chain": "FLCPVCGANFTQKGNLLRHIKL"}, "B42": {"name": "Q9UKT9 (peptide)", "chain": "FSCPICGHTFTQKGNLLRHIKL"}, "B43": {"name": "Q9UKT9 (peptide)", "chain": "FSCEICGRLFTQKGNLLRHIKL"}, "B44": {"name": "Q9UKT9 (peptide)", "chain": "LCCNQCGFECTQKGNLLRHIKL"}, "B45": {"name": "Q9UKT9 (peptide)", "chain": "FICPICGACFTQKGNLLRHIKL"}, "B46": {"name": "Q9UKT9 (peptide)", "chain": "FWCPICGHKFTQKGNLLRHIKL"}, "B47": {"name": "Q9UKT9 (peptide)", "chain": "LFCEICGFDCTQKGNLLRHIKL"}, "B48": {"name": "Q9UKT9 (peptide)", "chain": "FKCEICGHRFTQKGNLLRHIKL"}, "B49": {"name": "Q9UKT9 (peptide)", "chain": "FMCNQCGRHFTQKGNLLRHIKL"}, "B50": {"name": "Q9UKT9 (peptide)", "chain": "FHCPICGHWFTQKGNLLRHIKL"}},
  "note": "Some of the results follow.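 Note: jurkat cells carrying a lentiviral library of mutant zinc finger degrons fused to EGFP plus mCherry, mCherry+ cells FACS sorted, degron abundance counted by next-generation sequencing.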",
  "data": [
    {"target": "no compound (DMSO)", "test": "log2 fold change of degron read counts, EGFP-low vs EGFP+ sorted cells; higher = lower degron-EGFP level without compound (poor expression or instability)", "conditions": "compound: DMSO control; 18 h", "values": [
      {"sequence": "B1", "log2 fold change of degron read counts": -0.499},
      {"sequence": "B2", "log2 fold change of degron read counts": 0.727},
      {"sequence": "B3", "log2 fold change of degron read counts": -0.825},
      {"sequence": "B4", "log2 fold change of degron read counts": 1},
      {"sequence": "B5", "log2 fold change of degron read counts": -1.29},
      {"sequence": "B6", "log2 fold change of degron read counts": -1.61},
      {"sequence": "B7", "log2 fold change of degron read counts": -0.683},
      {"sequence": "B8", "log2 fold change of degron read counts": -1.15},
      {"sequence": "B9", "log2 fold change of degron read counts": -0.699},
      {"sequence": "B10", "log2 fold change of degron read counts": -1.56},
      {"sequence": "B11", "log2 fold change of degron read counts": -1.82},
      {"sequence": "B12", "log2 fold change of degron read counts": 3.03},
      {"sequence": "B13", "log2 fold change of degron read counts": -0.862},
      {"sequence": "B14", "log2 fold change of degron read counts": -1.73},
      {"sequence": "B15", "log2 fold change of degron read counts": 1.11},
      {"sequence": "B16", "log2 fold change of degron read counts": 0.931},
      {"sequence": "B17", "log2 fold change of degron read counts": -2.41},
      {"sequence": "B18", "log2 fold change of degron read counts": -2.45},
      {"sequence": "B19", "log2 fold change of degron read counts": 0.34},
      {"sequence": "B20", "log2 fold change of degron read counts": 1.1},
      {"sequence": "B21", "log2 fold change of degron read counts": -1.85},
      {"sequence": "B22", "log2 fold change of degron read counts": -0.662},
      {"sequence": "B23", "log2 fold change of degron read counts": -1.09},
      {"sequence": "B24", "log2 fold change of degron read counts": -1.32},
      {"sequence": "B25", "log2 fold change of degron read counts": 0.0899},
      {"sequence": "B26", "log2 fold change of degron read counts": -2.83},
      {"sequence": "B27", "log2 fold change of degron read counts": -0.957},
      {"sequence": "B28", "log2 fold change of degron read counts": 0.567},
      {"sequence": "B29", "log2 fold change of degron read counts": -0.247},
      {"sequence": "B30", "log2 fold change of degron read counts": -0.584},
      {"sequence": "B31", "log2 fold change of degron read counts": -2.4},
      {"sequence": "B32", "log2 fold change of degron read counts": -0.494},
      {"sequence": "B33", "log2 fold change of degron read counts": -1.9},
      {"sequence": "B34", "log2 fold change of degron read counts": 1.09},
      {"sequence": "B35", "log2 fold change of degron read counts": -2.14},
      {"sequence": "B36", "log2 fold change of degron read counts": -1.13},
      {"sequence": "B37", "log2 fold change of degron read counts": -0.575},
      {"sequence": "B38", "log2 fold change of degron read counts": -1.55},
      {"sequence": "B39", "log2 fold change of degron read counts": 0.664},
      {"sequence": "B40", "log2 fold change of degron read counts": -0.286},
      {"sequence": "B41", "log2 fold change of degron read counts": -0.302},
      {"sequence": "B42", "log2 fold change of degron read counts": -0.94},
      {"sequence": "B43", "log2 fold change of degron read counts": -0.932},
      {"sequence": "B44", "log2 fold change of degron read counts": -0.229},
      {"sequence": "B45", "log2 fold change of degron read counts": 0.435},
      {"sequence": "B46", "log2 fold change of degron read counts": 0.588},
      {"sequence": "B47", "log2 fold change of degron read counts": 0.442},
      {"sequence": "B48", "log2 fold change of degron read counts": -1.47},
      {"sequence": "B49", "log2 fold change of degron read counts": -0.805},
      {"sequence": "B50", "log2 fold change of degron read counts": 0.535}
    ]}
  ]
}
